Drawing on publication PMC10668032, this text covers binding signal for 172 sequences.

The other results are listed elsewhere or left out. At the low end of the ranking, values are background and their order means little.

The target of this assay is SIX1 homeodomain (reference allele) (UniProt Q15475). As to the kind of experiment: universal protein binding microarray. Particulars: Universal all-10-mer PBM (8x60K, AMADID 030236), 300 nM GST-tagged protein, Alexa Fluor 488 anti-GST; buffer, salt, pH and temperature not stated; high values mean tight binding; most listed sequences are background and not binding sites; double strand, one strand shown.
On to GACCGCCC, for which the binding signal is -0.189 E-score.

Take CATAATTA: the binding signal is 0.0477 E-score. To AGTCAATG belongs 0.008 E-score; to AGAGTACA, -0.0908 E-score; to ATTCATAA, -0.0344 E-score. For ACCCACAA, the binding signal is 0.004 E-score. To AGACTCAT belongs -0.0207 E-score; to CTAATGAG, -0.0145 E-score. As for GGGAAAAA, the binding signal was -0.177 E-score. To CGAGGGCC belongs 0.0254 E-score.

For TTGAACAA, the binding signal is -0.121 E-score. To ACGATGAC belongs -0.0768 E-score; to AAATCGTT, -0.196 E-score; to GCGGCGAC, -0.162 E-score. To GGGGCTAC belongs 0.00443 E-score.

Turning to AGCGGGTC, the binding signal is -0.104 E-score. Then CCGACACA, with -0.0231 E-score; and ACGCAACT, with -0.18 E-score; and ATCAGGAG, with 0.188 E-score. To AAAAACTG belongs -0.235 E-score; to ACTCCTGC, -0.0736 E-score. Then ACCTATGG, with -0.0785 E-score; and ATGCCTGA, with -0.0148 E-score. As for CCTGCTGA, the binding signal is 0.0482 E-score. Then CCGGAACG, with -0.177 E-score; and GAAGATCA, with 0.196 E-score; and ACCAAAAT, with 0.119 E-score. To CTTTCCCC belongs -0.148 E-score; to AATCCTCG, -0.155 E-score; to GGTAGGTA, -0.007 E-score. To ACCGCGTG belongs 0.127 E-score; to ACTCAGGG, 0.266 E-score.

On to AGGCCAAT, for which the binding signal is -0.0338 E-score. Then CCCATCAA, with -0.0956 E-score; and ACCGGCCC, with -0.0241 E-score; and CATCCCTC, with 0.111 E-score. To ATCTGTCA belongs 0.208 E-score.

Regarding GAGCGAGA, the binding signal is 0.108 E-score. Then CATCGTGG, with -0.121 E-score; and GAACGACA, with -0.079 E-score; and CTCTTTCA, with -0.161 E-score.

For the sequence CGCCCGGC, the binding signal was -0.0259 E-score. To CGACGGTA belongs -0.00819 E-score; to AGCTGTTC, -0.215 E-score. Then CTATACCC, with 0.369 E-score; and GCACGCCA, with -0.164 E-score; and AGGTAGAC, with 0.111 E-score. Consider GCTAGATA, for which the binding signal amounted to 0.255 E-score. Then TCGCGTCA, with -0.0385 E-score; and ACTCTAAT, with -0.0388 E-score. To AACCGATC belongs 0.335 E-score; to CGGGCACG, -0.151 E-score. Turning to TACATTAA, the binding signal stood at 0.125 E-score.

Consider TATCTCGA, for which the binding signal is 0.248 E-score. To CAAGAGCC belongs -0.0786 E-score; to ACTACGTC, -0.16 E-score. Then TCCTGCGA, with 0.0828 E-score; and GGATTAAA, with 0.231 E-score. Then CTTCAGAC, with -0.153 E-score; and TAGGTCAA, with -0.0979 E-score; and ACGAGGTG, with 0.0574 E-score. Regarding AAGGGCGC, the binding signal is -0.27 E-score.

With CCACAAGG, the binding signal is -0.2 E-score. To TAAGAACA belongs -0.00693 E-score; to ATGTCCAC, -0.0876 E-score. To AACAAGCT belongs -0.283 E-score. In the case of AAGAGACG, the binding signal amounted to 0.00789 E-score. To AGCATTCC belongs -0.126 E-score; to CTGTCAAG, -0.135 E-score. To AGGGTTCG belongs -0.17 E-score; to ATCGCCGA, 0.19 E-score; to ATTAAAGG, -0.0467 E-score. To ACGTCAGT belongs -0.112 E-score. On to AAGTGGAG, for which the binding signal is -0.0575 E-score. To CATTTCAG belongs 0.0112 E-score; to CATGGCCC, -0.0607 E-score. For the sequence CGGGTGAG, the binding signal amounted to 0.111 E-score.

On to CCGGTAGA, for which the binding signal is 0.151 E-score. For AGTGGGGA, the binding signal is 0.0779 E-score.

In the case of AATCTTCG, the binding signal is -0.098 E-score. Turning to CATCACAG, the binding signal was -0.0165 E-score.

Regarding TCGCTGAA, the binding signal turned out to be 0.1 E-score. To AAAGTCGA belongs -0.207 E-score; to ACGAGGGC, -0.00505 E-score; to AGGAAGGG, -0.294 E-score. To AGAAGCGC belongs -0.139 E-score; to AGGTTTAC, -0.0216 E-score.

Regarding CTTGGGTA, the binding signal was determined as 0.0812 E-score. For the sequence AATATACT, the binding signal was determined as 0.0741 E-score. Regarding CACGAAGC, the binding signal is -0.142 E-score. Regarding AGTAGATG, the binding signal is 0.139 E-score. To CTTTTTGC belongs -0.231 E-score; to CGTTATGC, -0.0637 E-score; to GTCCACTA, -0.155 E-score. As to AAGGCTGT, the binding signal turned out to be 0.00683 E-score.

On to ACGCTGCT, for which the binding signal is -0.231 E-score.

Turning to ACGTAAGA, the binding signal was -0.167 E-score.

As for ATGCTAAC, the binding signal was -0.127 E-score. Then GGCTAGCA, with -0.182 E-score; and CGGCAGAC, with -0.0937 E-score; and CGAGACCC, with 0.116 E-score. To CGGGATGA belongs 0.159 E-score; to ACACGAAA, -0.0708 E-score. To ACCAACGA belongs 0.0145 E-score.

AGCGTATG: the binding signal was 0.0372 E-score. As for ACTAATCT, the binding signal came out at 0.192 E-score. To AGCCAGTG belongs -0.257 E-score; to CGAGGGCG, -0.162 E-score; to TGGCTACA, 0.0627 E-score.

For CGTGATTA, the binding signal is -0.0121 E-score. On to AGACTCGA, for which the binding signal was -0.247 E-score. To GGCAAGCA belongs -0.263 E-score. To AACAAGGA belongs 0.133 E-score; to ATTGCGGG, 0.0992 E-score; to GGTTCTAA, -0.0146 E-score. Then CCAGCAAG, with -0.0893 E-score; and ACAGCTTG, with -0.0592 E-score; and AAGCTTGC, with -0.287 E-score. In the case of ATCTCGGG, the binding signal came out at 0.272 E-score.

In the case of ATCGCGTC, the binding signal was 0.201 E-score.

For the sequence ATCACGTG, the binding signal stood at 0.113 E-score. Take AGAAGGGA: the binding signal was 0.131 E-score. As to GGCCCTAA, the binding signal was -0.213 E-score. Then CGGGTGCC, with -0.0226 E-score; and CCGCGCCG, with 0.0988 E-score. To AGCAAAAG belongs -0.185 E-score; to AGCTTATA, 0.0649 E-score; to CGCTACGC, -0.195 E-score. Regarding CTGAATAC, the binding signal is 0.0928 E-score. To GCGGAGAA belongs -0.0801 E-score; to AATAAGGC, -0.0652 E-score. Regarding CCGGGGTA, the binding signal amounted to 0.282 E-score.

In the case of CCCCCTCG, the binding signal is -0.00232 E-score.

In the case of ACCATTCG, the binding signal is -0.139 E-score. To TAGCAATA belongs 0.121 E-score; to AAACGAGT, 0.0864 E-score. Then ACGCAGCA, with -0.139 E-score; and CCGTCAGA, with -0.0812 E-score. For ACCGGAGG, the binding signal came to 0.126 E-score. To ACAGATGG belongs -0.0262 E-score; to CAAGAAAC, -0.103 E-score; to ACTCCTTG, -0.0322 E-score.

As to GGGCCCAA, the binding signal is -0.162 E-score. CGCAGGAA: the binding signal is -0.035 E-score.

Regarding GTTTGTCA, the binding signal was -0.132 E-score. To AATGGCTG belongs -0.0545 E-score; to AAACGCGA, -0.247 E-score; to CGTGCGTC, 0.014 E-score. Consider CCTAGCCG, for which the binding signal was -0.109 E-score.

For GAAAGTGA, the binding signal was -0.0181 E-score. To GACAGGTA belongs 0.0735 E-score.

In the case of AATGTTGA, the binding signal is 0.0497 E-score. In the case of AACCCAGT, the binding signal was -0.0779 E-score. Then CACTACGC, with -0.226 E-score; and CGCTCTAG, with -0.237 E-score.

For ATATGGGG, the binding signal came out at 0.4 E-score. To AATGCTTA belongs -0.13 E-score. Then ACCACTTA, with -0.103 E-score. As for GGCCCACA, the binding signal is -0.316 E-score. Then CTTTATTC, with -0.191 E-score; and CGTCCTTC, with -0.0777 E-score; and CAGCCAAG, with -0.0893 E-score. Then GATGTCGA, with 0.0781 E-score; and AGACGCGC, with -0.115 E-score; and AGCTCCAC, with -0.118 E-score. To GCTTAAAC belongs -0.339 E-score; to CCTACTAA, 0.031 E-score. With AACCCTGG, the binding signal stood at 0.0352 E-score. As to CACCAAGA, the binding signal is 0.074 E-score. Then GCGCAATA, with 0.135 E-score.

Take CACCCCCG: the binding signal was 0.172 E-score. To CCAACGGC belongs -0.322 E-score.
